Measured values as given in publication PMC12136788.
The list shows a part of the results.

T1: UNK ZnF1-6 (called full-length) (human, UniProt Q9C0B0 30-357)
T1 sequence: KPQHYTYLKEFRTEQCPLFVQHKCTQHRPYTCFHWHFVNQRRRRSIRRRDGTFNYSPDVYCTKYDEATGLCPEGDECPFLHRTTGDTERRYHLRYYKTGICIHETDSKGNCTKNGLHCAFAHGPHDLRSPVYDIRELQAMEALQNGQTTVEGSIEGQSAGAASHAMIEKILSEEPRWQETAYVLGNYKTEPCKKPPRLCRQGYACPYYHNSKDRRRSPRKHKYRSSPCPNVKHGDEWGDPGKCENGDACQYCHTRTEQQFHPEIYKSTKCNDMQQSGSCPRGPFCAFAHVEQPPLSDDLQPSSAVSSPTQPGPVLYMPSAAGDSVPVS

B1: chrX:115010634:115010735:-|CDS|ENSG00000123496|msi1|FALSE|unique (ssRNA)
RNA: GGGAGUUCUACAGUCCGACGAUCUGGAUCAUCAGAGAACAAGCCUAUCAGAUCCAGUUAUUUCACUUUUCAGCUUCAAAAUAUAGGUGAUGUAAACCAACAAACAACUUCAAAUUCAUUGUUUCUAGUUUAGGCCAUUUACAACAACAGAGGAUUGAGCAUCA
B2: ENSG00000124766:be:win_2701|3pUTR|ENSG00000124766|bound_else_gene|NA|bound_elsewhere_windowed (ssRNA)
RNA: GGGAGUUCUACAGUCCGACGAUCCAACUCAAAUCUGUGCUGGACUUUAAAAAAACAAUUCAGGACCAAAUUUUUUCUCAGUGUGUGUGUUUAUUCCUUAUAGGUGUAAAUGAGAAGACGUGUUUUUUUCCUUCACCGAUGCUCCAACAGAGGAUUGAGCAUCA
B3: chr9:132262671:132262773:-|3pUTR|ENSG00000107290|unk|FALSE|bound_elsewhere (ssRNA)
RNA: GGGAGUUCUACAGUCCGACGAUCUGUGCAUUAUUUGACAUUUCCUUUGUCAUCUGCUUUUUAAGCAAAAAAGGGUUUUGUGUUAGAAAUUCUACUUGAGCAGAUUAUAAAGAGCUUUAAAAAACAACUUUCGGUUGCCAAAAGCAACAGAGGAUUGAGCAUCA
B4: ENSG00000198589:be:win_1251|CDS|ENSG00000198589|bound_else_gene|NA|bound_elsewhere_windowed (ssRNA)
RNA: GGGAGUUCUACAGUCCGACGAUCUGCAUUCACGUACAAUCCACGGGCUACAGAUGCCCAGCUUUGUCUUGAAUCAUCUCCUAAGGACAACCCUUCAAUUUUUGUUCAUUCACCACAUGCACUCAUGCUCCAGGAUGUAAAGGCCAACAGAGGAUUGAGCAUCA
B5: chr17:44352837:44352938:+|3pUTR|ENSG00000030582|unk|total|mutant (ssRNA)
RNA: GGGAGUUCUACAGUCCGACGAUCCUGAAGACUCUGCAGCCCUCGGGACCCCACUCGGAGGGUGCCCUCUGCUCAGGCCUCCCCCGCACCUCCCCCUAACCAAAUUCUCCCUGGACCCCAUUCUGAGCUCCCCAUCACCAUGGGCAACAGAGGAUUGAGCAUCA
B6: chr7:93926053:93926159:+|CDS|ENSG00000127920|unk|FALSE|unique (ssRNA)
RNA: GGGAGUUCUACAGUCCGACGAUCGUCUAAAUGUUCUGAAGAAAUAAAGAACUAUAUUGAAGAACGUUCUGGAGAGGAUCCUCUAGUAAAGGGAAUUCCAGAAGACAAGAACCCCUUUAAAGAAAAAGGCAGCUGUGUUAUUUCCAACAGAGGAUUGAGCAUCA

These binders were tested against T1, UNK ZnF1-6 (called full-length) (assay: nsRBNS (natural sequence RNA bind-n-seq); RBNS binding buffer (assumed for nsRBNS): 25 mM Tris pH 7.5, 150 mM KCl, 3 mM MgCl2, 0.01% Triton X-100, 500 ug/ml BSA, 20 U/ml SUPERase-In, 4 C; UNK is unkempt and MSI1 is Musashi-1; names of the RNAs are library labels; protein concentration not given here; high values mean tight binding).

| Binder | binding signal |
| --- | --- |
| B1 | 0.759 enrichment R |
| B2 | 0.605 enrichment R |
| B3 | 0.359 enrichment R |
| B4 | 0.398 enrichment R |
| B5 | 0.732 enrichment R |
| B6 | 0.476 enrichment R |
